# Reference: PMC12136788
# This is one part of the list.
# T1: UNK ZnF1-6 (called full-length) (human, UniProt Q9C0B0 30-357)
# T1 sequence: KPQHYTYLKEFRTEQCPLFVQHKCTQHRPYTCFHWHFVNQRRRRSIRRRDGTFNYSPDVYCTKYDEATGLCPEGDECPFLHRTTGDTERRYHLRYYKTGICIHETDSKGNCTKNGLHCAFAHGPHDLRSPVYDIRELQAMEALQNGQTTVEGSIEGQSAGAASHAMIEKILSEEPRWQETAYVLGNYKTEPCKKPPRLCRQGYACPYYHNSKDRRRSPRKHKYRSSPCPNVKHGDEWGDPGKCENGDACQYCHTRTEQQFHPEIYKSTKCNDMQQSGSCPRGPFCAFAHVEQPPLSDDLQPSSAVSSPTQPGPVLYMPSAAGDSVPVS
# B1: chr20:32237940:32238012:+|3pUTR|ENSG00000101346|msi1_unk|FALSE|overlapping (ssRNA)
# RNA: GGGAGUUCUACAGUCCGACGAUCUUUCAAAGAUACAAAUAUUUACAUAGUUUUAAUCAUGUAAUAUAUACAAUUUAAUGUCCUAGUGUUUUACUUAAUAGUGUAUCAUGUUUUCCCUGUUGGUAUGUAGCCUGGAUAAAUGCUCAACAGAGGAUUGAGCAUCA
# B2: ENSG00000136451:be:win_3951|3pUTR|ENSG00000136451|bound_else_gene|NA|bound_elsewhere_windowed (ssRNA)
# RNA: GGGAGUUCUACAGUCCGACGAUCGUAUGCAUUCUUUAUUCACUUAAGAAGCUUGUCUGCAAUAAUAAAGCCACGUCAUGUCUUCUUUUGGGAGGGAGAGAGUCGAUGGCAGGAGGGGGUUUUGGGUGGGCCACUGAAAAGGGGCAACAGAGGAUUGAGCAUCA
# B3: chrX:115010634:115010735:-|CDS|ENSG00000123496|msi1|FALSE|unique (ssRNA)
# RNA: GGGAGUUCUACAGUCCGACGAUCUGGAUCAUCAGAGAACAAGCCUAUCAGAUCCAGUUAUUUCACUUUUCAGCUUCAAAAUAUAGGUGAUGUAAACCAACAAACAACUUCAAAUUCAUUGUUUCUAGUUUAGGCCAUUUACAACAACAGAGGAUUGAGCAUCA
# B4: ENSG00000124766:be:win_2701|3pUTR|ENSG00000124766|bound_else_gene|NA|bound_elsewhere_windowed (ssRNA)
# RNA: GGGAGUUCUACAGUCCGACGAUCCAACUCAAAUCUGUGCUGGACUUUAAAAAAACAAUUCAGGACCAAAUUUUUUCUCAGUGUGUGUGUUUAUUCCUUAUAGGUGUAAAUGAGAAGACGUGUUUUUUUCCUUCACCGAUGCUCCAACAGAGGAUUGAGCAUCA
# B5: chr9:132262671:132262773:-|3pUTR|ENSG00000107290|unk|FALSE|bound_elsewhere (ssRNA)
# RNA: GGGAGUUCUACAGUCCGACGAUCUGUGCAUUAUUUGACAUUUCCUUUGUCAUCUGCUUUUUAAGCAAAAAAGGGUUUUGUGUUAGAAAUUCUACUUGAGCAGAUUAUAAAGAGCUUUAAAAAACAACUUUCGGUUGCCAAAAGCAACAGAGGAUUGAGCAUCA
# B6: ENSG00000198589:be:win_1251|CDS|ENSG00000198589|bound_else_gene|NA|bound_elsewhere_windowed (ssRNA)
# RNA: GGGAGUUCUACAGUCCGACGAUCUGCAUUCACGUACAAUCCACGGGCUACAGAUGCCCAGCUUUGUCUUGAAUCAUCUCCUAAGGACAACCCUUCAAUUUUUGUUCAUUCACCACAUGCACUCAUGCUCCAGGAUGUAAAGGCCAACAGAGGAUUGAGCAUCA
# B7: chr17:44352837:44352938:+|3pUTR|ENSG00000030582|unk|total|mutant (ssRNA)
# RNA: GGGAGUUCUACAGUCCGACGAUCCUGAAGACUCUGCAGCCCUCGGGACCCCACUCGGAGGGUGCCCUCUGCUCAGGCCUCCCCCGCACCUCCCCCUAACCAAAUUCUCCCUGGACCCCAUUCUGAGCUCCCCAUCACCAUGGGCAACAGAGGAUUGAGCAUCA
# B8: chr7:93926053:93926159:+|CDS|ENSG00000127920|unk|FALSE|unique (ssRNA)
# RNA: GGGAGUUCUACAGUCCGACGAUCGUCUAAAUGUUCUGAAGAAAUAAAGAACUAUAUUGAAGAACGUUCUGGAGAGGAUCCUCUAGUAAAGGGAAUUCCAGAAGACAAGAACCCCUUUAAAGAAAAAGGCAGCUGUGUUAUUUCCAACAGAGGAUUGAGCAUCA
# B9: ENSG00000107863:be:win_3351|CDS|ENSG00000107863|bound_else_gene|NA|bound_elsewhere_windowed (ssRNA)
# RNA: GGGAGUUCUACAGUCCGACGAUCAAAAGACAAAGGCACAUGGAGAAAAGGCAUUCCAAGUAUCAUGAGAAAGACAUUUGAGAAAAAGCCAACUGCUACAGGAACUUUCGGCGUCCGACUAGAUGACUGCCCACCAGCUCAUACCAACAGAGGAUUGAGCAUCA
# B10: chr14:67336187:67336738:-|three_prime_utr|ENSG00000100554|control|control|control (ssRNA)
# RNA: GGGAGUUCUACAGUCCGACGAUCGUCAAGUAUGAUUUGAUUUAAUUUGAUCUUUAUAUUUUAAGAAUUACGUACUGCCUUUCUAGGAGGCAAAAAUUAGUUUGAAGUAGGGAUCCAGAUUAGUGGUUUUCCACAUGUAGGUAACAACAGAGGAUUGAGCAUCA
# B11: chr1:116393555:116393656:+|CDS|ENSG00000163399|msi1|FALSE|unique (ssRNA)
# RNA: GGGAGUUCUACAGUCCGACGAUCCCCCAACACAUCGGAGCCCCAACACCUGUUGGUGAUGAAGGGCGCCCCAGAAAGGAUCCUAGACCGUUGCAGCUCUAUCCUCCUCCACGGCAAGGAGCAGCCCCUGGAUGAGGAGCUGAACAACAGAGGAUUGAGCAUCA
# B12: ENSG00000112365:stop:overlap|stop_codon|ENSG00000112365|stop_codon|NA|stop_codon (ssRNA)
# RNA: GGGAGUUCUACAGUCCGACGAUCUCUACACACUGGCAAGAAGCCUUUCUCCUGCCCUGAGUGUAACUUACAGUUUGCUCGCUUAGACAACUUGAAGGCUCACUUGAAAAUUCAUAGCAAGGAGAAGCAUGCUUCAGAUGCCAGCAACAGAGGAUUGAGCAUCA
# B13: chr12:76028505:76028606:-|3pUTR|ENSG00000139289|msi1|FALSE|unique (ssRNA)
# RNA: GGGAGUUCUACAGUCCGACGAUCAAGUCUUGGUCAGUAUUUUUCCAGCAUUUAAAUUGAAACGGUCAGUAUUAGACCACUGCUAGGUUAUGUAGUCAAGAAAUAAAAAUAGAAUUACAUGCUACAGAUGUCUUUAUUCUCCUUCAACAGAGGAUUGAGCAUCA
# B14: chr2:240467872:240467977:+|3pUTR|ENSG00000063660|msi1|total|mutant (ssRNA)
# RNA: GGGAGUUCUACAGUCCGACGAUCCUCUGGCACAGUGAUGCCGGGCGCCAGGACAGCAGCACUCCCGCUGCACACAGACGGCCCCGGGGUGGCGCUCAGACCCCACCCUACGCUCAUCUCUGGAAGGGGCAGCCCUGAGUGGUCCAACAGAGGAUUGAGCAUCA
# B15: chr15:30400561:30403739:-|three_prime_utr|ENSG00000186399|control|control|control (ssRNA)
# RNA: GGGAGUUCUACAGUCCGACGAUCAUAAGAAACCAAGUUAUGGGGUUAAUCUCCUACACAAUUCAUUUACUUCCUUUGAAUGUUAGACUCACUCAUGAUUAUUUGUGUUUCUAAUUUAUAGUUUAAGUUUAUUUGUAAAAAGUUCAACAGAGGAUUGAGCAUCA
# B16: chr12:64147824:64147925:+|3pUTR|ENSG00000196935|unk|total|mutant (ssRNA)
# RNA: GGGAGUUCUACAGUCCGACGAUCCAUCUCUGUGGUGUCUUUGUUCCUUUCCUUUCAUUCAUCACUACUUUCUCCUUGACAGCCCGCUUGCAUUAAAUAAUGUGAAACUUUUACCUUUAAAAUAUUUUUUUAUCUCACUUUCAUCAACAGAGGAUUGAGCAUCA
# B17: chr11:2397021:2397122:+|3pUTR|ENSG00000110651|msi1|FALSE|unique (ssRNA)
# RNA: GGGAGUUCUACAGUCCGACGAUCUUGGGGUUUUGUUUUUGUUCUGAACUUUCCUGUUACCUUUUCAGGGCUGACGUCACAUGUAGGUGGCGUGUAUGAGUGGAGACGGGCCUGGGUCUUGGGGACUGGAGGGCAGGGGUCCUUCAACAGAGGAUUGAGCAUCA
# B18: chr7:107760707:107760808:+|3pUTR|ENSG00000105879|unk|FALSE|unique (ssRNA)
# RNA: GGGAGUUCUACAGUCCGACGAUCAAACAUGAAAUAUGUAGUAUGCAGAUAUCAUUUAUUAGAUAGUUUGUAGUGUAUACAUUUAGAACAUACUUCUUUUGACAAAGGGUGAUCUGAUUGCUAAUUUACCAUUUUAUUCUGUCACAACAGAGGAUUGAGCAUCA
# B19: chr6:132328510:132328611:-|CDS|ENSG00000079931|msi1|total|mutant (ssRNA)
# RNA: GGGAGUUCUACAGUCCGACGAUCUUGUGGGAUGUUGCCGGGUGGUCUUAUUUAUUGUGUCCUCCCUCUCAUUUAUGUUCGUGCCGGUUGAGCCAGUGAUACAGAGAGGCCAUGAGAGUCUGGUGCACCACAUCCUGCUCUAUCCAACAGAGGAUUGAGCAUCA
# B20: ENSG00000227500:stop:overlap|stop_codon|ENSG00000227500|stop_codon|NA|stop_codon (ssRNA)
# RNA: GGGAGUUCUACAGUCCGACGAUCGCAACAGCCUGCCCGAGUACCCCACUGUGCCCAGCUACCCGGGCAGUGGCCAGUGGCCUUAGAGGGAGCCUGCCCUGCCCCCACCGCCCACCACCUCCUCCCCUUCAUUCCUGCUGCUACCAACAGAGGAUUGAGCAUCA
# B21: ENSG00000198589:be:win_7351|CDS|ENSG00000198589|bound_else_gene|NA|bound_elsewhere_windowed (ssRNA)
# RNA: GGGAGUUCUACAGUCCGACGAUCGUGUUGAGAGAGGCUGUUGAAGCUCAAAUCCGAAGUUUUGGACAGACUCCUUCUCAACUACUCAUAGAGCCCCAUCCUCCCAGAGGUUCUGCCAUGCAAGUGAGUCCAUUGAUGUUCACACAACAGAGGAUUGAGCAUCA
# B22: chr4:68310386:68314098:-|three_prime_utr|ENSG00000083896|control|control|control (ssRNA)
# RNA: GGGAGUUCUACAGUCCGACGAUCGCACUGAUUGUUUAAAGAUACAAAAAAUCUUGUAUUUUUUUUUUGUGUGUGUUUACAAGUAGUAAAUUUAUUUUCAGCUGUCUGCCUAUGAAGUUCAUUGUGUAGAAGGAUUUAUUAUGACAACAGAGGAUUGAGCAUCA
# Biological target: T1, UNK ZnF1-6 (called full-length)
# Test: nsRBNS (natural sequence RNA bind-n-seq); RBNS binding buffer (assumed for nsRBNS): 25 mM Tris pH 7.5, 150 mM KCl, 3 mM MgCl2, 0.01% Triton X-100, 500 ug/ml BSA, 20 U/ml SUPERase-In, 4 C; UNK is unkempt and MSI1 is Musashi-1; names of the RNAs are library labels; protein concentration not given here; high values mean tight binding
row,Binder,binding signal [enrichment R]
1,B1,4.06
2,B2,0.995
3,B3,0.759
4,B4,0.605
5,B5,0.359
6,B6,0.398
7,B7,0.732
8,B8,0.476
9,B9,0.507
10,B10,2.22
11,B11,0.574
12,B12,0.948
13,B13,0.83
14,B14,0.66
15,B15,3.04
16,B16,2.22
17,B17,2.11
18,B18,1.11
19,B19,0.689
20,B20,0.868
21,B21,0.567
22,B22,0.948
